Results as given in ChEMBL document CHEMBL2021834, “Novel sulfonylurea derivatives as H3 receptor antagonists. Preliminary SAR studies” (Eur J Med Chem, 2012).

Target: Voltage-gated inwardly rectifying potassium channel KCNH2 (Homo sapiens, UniProt Q12809)
Sequence (Q12809 whole entry): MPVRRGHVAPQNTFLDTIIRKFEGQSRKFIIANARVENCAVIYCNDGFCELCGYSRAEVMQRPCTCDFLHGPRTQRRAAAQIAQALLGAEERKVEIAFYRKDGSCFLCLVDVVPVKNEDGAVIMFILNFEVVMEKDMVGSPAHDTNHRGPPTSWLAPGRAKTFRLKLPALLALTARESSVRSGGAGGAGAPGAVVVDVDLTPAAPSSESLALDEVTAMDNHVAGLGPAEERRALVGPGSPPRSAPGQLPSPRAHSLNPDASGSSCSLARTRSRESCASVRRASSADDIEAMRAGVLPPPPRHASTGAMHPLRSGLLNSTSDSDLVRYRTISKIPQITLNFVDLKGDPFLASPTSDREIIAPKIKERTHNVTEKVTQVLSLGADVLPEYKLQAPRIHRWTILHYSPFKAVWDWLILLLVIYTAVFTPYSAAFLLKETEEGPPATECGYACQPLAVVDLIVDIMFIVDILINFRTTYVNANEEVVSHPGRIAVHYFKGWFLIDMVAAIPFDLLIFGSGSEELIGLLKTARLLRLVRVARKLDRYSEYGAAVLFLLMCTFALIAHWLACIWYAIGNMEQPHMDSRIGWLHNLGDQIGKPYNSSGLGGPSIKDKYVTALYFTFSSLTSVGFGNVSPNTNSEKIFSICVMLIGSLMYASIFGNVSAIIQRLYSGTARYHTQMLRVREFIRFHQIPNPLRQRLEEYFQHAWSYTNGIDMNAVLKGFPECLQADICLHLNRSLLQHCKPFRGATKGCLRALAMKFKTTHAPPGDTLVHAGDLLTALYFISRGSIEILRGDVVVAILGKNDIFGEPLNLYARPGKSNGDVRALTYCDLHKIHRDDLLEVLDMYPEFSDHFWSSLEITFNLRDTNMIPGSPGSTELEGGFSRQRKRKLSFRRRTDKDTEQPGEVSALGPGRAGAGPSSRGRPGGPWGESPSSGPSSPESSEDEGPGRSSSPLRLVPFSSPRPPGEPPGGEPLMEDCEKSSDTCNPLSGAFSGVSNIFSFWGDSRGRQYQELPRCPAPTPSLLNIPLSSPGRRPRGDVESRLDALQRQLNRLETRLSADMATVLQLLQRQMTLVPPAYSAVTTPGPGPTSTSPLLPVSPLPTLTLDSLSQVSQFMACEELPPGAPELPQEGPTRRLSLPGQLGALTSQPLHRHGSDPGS

Which IC50 does the source give for `O=C(Nc1ccc(C(F)(F)F)cc1)NS(=O)(=O)c1ccc(OCCCN2CCCCC2)cc1` here?
Its IC50 is over 100 µM.

How did the IC50 turn out when `CCOC(=O)C1CCN(CCCOc2ccc(S(=O)(=O)NC(=O)Nc3ccccc3)cc2)CC1` was run?
The IC50 was 78.7 µM.

How did the IC50 turn out when `CC(C)NC(=O)NS(=O)(=O)c1ccc(OCCCCN2CCCC2)cc1` was run?
The IC50 was over 100 µM.

How did the IC50 turn out when `O=C(Nc1ccccc1)NS(=O)(=O)c1ccc(OCCCCN2CCCC2)cc1` was run?
The IC50 was over 100 µM.

Which IC50 does the source give for `O=C(Nc1cc(Cl)ccc1Cl)NS(=O)(=O)c1ccc(OCCCCN2CCCC2)cc1` here?
Its IC50 is over 100 µM.

`CC(C)NC(=O)NS(=O)(=O)c1ccc(OCCCCN2CCCCC2)cc1` was tested. Which IC50 did it give?
The IC50 was over 100 µM.

With `O=C(Nc1ccccc1)NS(=O)(=O)c1ccc(OCCCCN2CCCCC2)cc1` as the molecule, how does the IC50 read?
Its IC50 is over 100 µM.

For `O=C(Nc1ccc(C(F)(F)F)cc1)NS(=O)(=O)c1ccc(OCCCCN2CCCCC2)cc1`, which IC50 is on record?
Its IC50 is over 100 µM.

`O=C(Nc1cccc(C(F)(F)F)c1)NS(=O)(=O)c1ccc(OCCCN2CCCC2)cc1` was tested. Which IC50 did it give?
Its IC50 is over 100 µM.

How did the IC50 turn out when `CC(=O)c1ccc(NC(=O)NS(=O)(=O)c2ccc(OCCCN3CCCC3)cc2)cc1` was run?
Its IC50 is over 100 µM.

`CC(=O)c1ccc(NC(=O)NS(=O)(=O)c2ccc(OCCCN3CCCCC3)cc2)cc1` was tested. Which IC50 did it give?
Its IC50 is over 100 µM.

For `O=C(NC(c1ccccc1)c1ccccc1)NS(=O)(=O)c1ccc(OCCCN2CCCCC2)cc1`, which IC50 is on record?
Its IC50 is over 100 µM.

How did the IC50 turn out when `NS(=O)(=O)c1ccc(OCCN2CCCC2)cc1` was run?
The IC50 was over 100 µM.

`NS(=O)(=O)c1ccc(OCCN2CCCCC2)cc1` was tested. Which IC50 did it give?
Its IC50 is 24 µM.

For `NS(=O)(=O)c1ccc(OCCCN2CCCCC2)cc1`, which IC50 is on record?
The IC50 was 93.2 µM.

`O=C(Nc1ccccc1)NS(=O)(=O)c1ccc(OCCN2CCCC2)cc1` was tested. Which IC50 did it give?
Its IC50 is over 100 µM.

How did the IC50 turn out when `CC(C)NC(=O)NS(=O)(=O)c1ccc(OCCN2CCCCC2)cc1` was run?
The IC50 was 26.1 µM.

For `CC(C)NC(=O)NS(=O)(=O)c1ccc(OCCCN2CCCC2)cc1`, which IC50 is on record?
Its IC50 is over 100 µM.

How did the IC50 turn out when `O=C(Nc1cc(Cl)ccc1Cl)NS(=O)(=O)c1ccc(OCCCN2CCCC2)cc1` was run?
Its IC50 is over 100 µM.

`O=C(Nc1ccc(C(F)(F)F)cc1)NS(=O)(=O)c1ccc(OCCCN2CCCC2)cc1` was tested. Which IC50 did it give?
The IC50 was over 100 µM.
